# Test results taken from ChEMBL document CHEMBL4888484, “Replenishing the malaria drug discovery pipeline: Screening and hit evaluation of the MMV Hit Generation Library 1 (HGL1) against asexual blood stage Plasmodium falciparum ,using a nano luciferase reporter read-out” (2022).
# Screen size: about 150,000 compounds; about 540 (0.36%) showed an effect of 50% or more. The list shows a part of the results.
# Test system: Plasmodium falciparum
# Assay: Primary screen in NF54 nanoGlo assay, in single point, at 2uM, 72h; a lower Z score goes with more inhibition
# Format: functional, Erythrocyte
# Details: timepoint 72 hour
SMILES,% Inhibition,Z score
C[C@@H](CNC(=O)NC1CCN(Cc2ccccc2)CC1)N1CCc2ccccc21,1%,-0.12
O=C(c1cnc(O[C@H]2CCOC2)c(Cl)c1)N1CCN(C(=O)c2ccco2)CC1,3%,-0.52
CCCCn1nnnc1CN1CC(C)OC(C)C1 (stereo not drawn),11%,-2.09
CCc1nsc(N2CCC[C@H](c3nc(-c4ccc(F)cc4)no3)C2)n1,-12%,1.59
COC(=O)CN(CC(N)=O)[C@H](C)c1ccccc1,0%,-0.04
C#CCOC[C@@H](O)CN(Cc1c(-c2ccccc2)nn(C)c1Oc1ccc(F)cc1F)CC(C)C,-13%,2.38
C[C@H](OC(=O)c1cccnc1)C(=O)Nc1ccc(S(=O)(=O)N2CCOCC2)cc1,3%,-0.56
CC(NC(=O)[C@H]1OCC[C@H]1C)C1CCN(Cc2ccccc2)C1 (stereo partly drawn),-6%,0.66
O=C(NC[C@H]1CCN(c2ccccc2F)C1)C1(N2CCCC2)CCCCC1,0%,-0.04
O=S1(=O)CC2CN(Cc3ccccc3)CC(C1)C2(F)F,0%,0.07
CCCc1ccc(OCCNC(=O)[C@H]2C[C@H]3C=C[C@@H]2C3)cc1,-9%,1.09
CC(NC(=O)C(C)(C)C)C(=O)N1CCOCC(C2CCC2)C1 (stereo not drawn),-15%,2.03
O=C(NCc1cn2c(n1)C(=O)N(Cc1ccccc1)CC2)c1cccnc1,4%,-0.59
CN(CCN1CCN(S(=O)(=O)Cc2ccon2)CC1)Cc1ccc(F)cc1,9%,-0.95
CC1(C)CCCC[C@@H]1C(=O)NCCS(N)(=O)=O,4%,-0.71
CCN1CC(=O)N(Cc2cc(C)cs2)C1=O,-8%,0.79
COC(=O)Cn1ccc(N[C@@H](C)c2nc3ccccc3o2)n1,-7%,0.59
COCCn1ccnc1C1CCN(c2cc(C(F)(F)F)cc(C)n2)CC1,5%,-0.78
CCC(CC)C(=O)Nc1cccc(Br)c1,-2%,0.27
Cc1cnc(Cn2cnc(-c3ccccc3)c2COCc2ccccc2)cn1,-7%,1.37
CCCN(CC(N)=O)C1CC(OCC)C1(C)C (stereo not drawn),-10%,1.45

SMILES,% Inhibition,Z score
O=C(Nc1ccc(-n2cnnn2)cc1)[C@@H]1CC=CCC1,-12%,0.98
O=C1N(C2CCCCC2)C[C@H]2CN(Cc3cccs3)CCN12,10%,-1.11
CN1C[C@@H]2CN(C(=O)c3cccc(-n4ccnn4)c3)C[C@]2(C)C1,-13%,2.25
CN(Cc1cnccn1)c1nc2ccccc2[nH]1,-10%,1.01
c1ccc(-c2nsc(N3CC[C@H](N4CCCC4)C3)n2)cc1,-1%,0.2
CN(C)[C@@H](C(=O)Nc1ccc(CC(N)=O)cc1)c1c(F)cccc1F,0%,0.05
CC(=O)N[C@H]1[C@H](Oc2ccc(Cl)cc2Cl)O[C@@H]2COC(C)(C)O[C@H]2[C@@H]1O,-6%,0.74
O=C1CC[C@H](C(=O)N2CCC3(CCCCC3)C2)CN1,-1%,0.07
CC1CN2CCCC2CN1S(=O)(=O)c1c(F)cccc1F (stereo not drawn),28%,-3.22
Cn1c(=O)c(-c2ccc(C(=O)Nc3ccc(OC(F)(F)F)cc3)cc2)nc2cccnc21,-6%,0.95
O=C(NCc1ccc(F)cc1)c1cnc(-c2ccc(F)cc2)nc1N1CCC(Cc2ccccc2)CC1,-9%,0.92
CC(C)=CCN1CC[C@]2(CCCO2)CCC1=O,28%,-5.83
Cn1c(=O)c2ccn(CC(=O)N3CCCC3)c2n(C)c1=O,-8%,0.76
CCOC(=O)NC[C@@H]1C[C@H](F)CN1C(=O)CCc1nc2ccccc2[nH]1,16%,-2.12
CC1=CCCN(Cc2nc(C(F)F)no2)C1,2%,-0.24
CCN(C(=O)c1ccc(COC)cc1)c1ccc(Br)cn1,-10%,1.29
N#Cc1ccccc1N1CCN2c3ccc(C(F)(F)F)cc3CC(C(=O)NC3CCCCC3)C2C1 (stereo not drawn),-4%,0.51
O=C(c1cc[nH]c1C1CC1)N1CCC(c2nc(=O)[nH][nH]2)CC1,6%,-1.06
Fc1ccc(Oc2cc(N3CCC(N4CCCCC4)CC3)ncn2)c(F)c1,14%,-2.12
CC(C)(C)n1nnnc1[C@@H]1CC2(CCOCC2)C(=O)N1Cc1cccc(F)c1,-5%,0.55
CC(=O)Oc1c(-c2ccc(NC(=O)C(C)C)cc2)c(-c2ccc(N(C)C)cc2)nn1-c1cc(C)ccc1C,-8%,1.06

SMILES,% Inhibition,Z score
NCC1(NC(=O)CCOc2ccccc2)CCCC1,4%,-0.53
COc1ccnc(C(=O)NCC[C@H]2CCOC2)c1,-15%,1.96
COc1cccc([C@H]2CC(=O)Nc3c2c(C)nn3-c2ncnc3[nH]cnc23)c1,33%,-3.7
Cc1cc(N2CCN(C(=O)c3c(F)cccc3F)CC2)nc(N2CCOCC2)n1,-9%,1.1
COC1(C(=O)N2CCC[C@H](c3nc(-c4ccccc4)c[nH]3)C2)CCCCC1,-2%,0.24
CC1CCCC(CC(=O)NCCCC(=O)O)C1 (stereo not drawn),-5%,0.67
CCN(CC)c1ncnc2c1ncn2C1OC(CO)C(O)C1O (stereo not drawn),4%,-0.46
CCC(=O)N1CCC[C@H]1c1nc(-c2ccccc2)c(C(C)C)o1,-4%,0.54
CCCn1nc(Cc2cccnc2)nc1CCc1c[nH]c2ccccc12,1%,-0.16
Cc1cccc(-n2ncc(C(=O)Nc3ccc(Cl)cc3)c2C2CCN(C(=O)OC(C)(C)C)CC2)c1,-11%,1.68
C[C@H](O)CN1CCN(C(=O)c2nc3ccccc3s2)CC1,-10%,1.88
Cc1c(CNc2nnc(C(C)C)s2)cc(C#N)n1C,0%,-0.06
CC(=O)Nc1nc(C)c(S(=O)(=O)N2CCCCC2)s1,-12%,1.32
Cc1nc(CN(CC#N)S(=O)(=O)N(C)C)cs1,-8%,1.26
Cc1nnsc1C(=O)NCc1ccccc1-c1ccsc1,-3%,0.51
O=C(c1cc2ccccn2c1)N1CCCCO1,-13%,1.77
CCC[C@H](C)N1CC2(CCN(C(=O)CCc3cccnc3)CC2)OC1=O,-3%,0.4
Cc1cc(C(=O)N2CCOc3ccc(C(=O)N4CCOCC4)cc3C2)no1,1%,-0.2
O=C(Cc1ccc2c(c1)OCO2)N1CCn2nccc2C1,-9%,1.43
c1ccc(OCCn2ccnc2-c2c[nH]cn2)cc1,0%,-0.07
CC(C)=CCC/C(C)=C/CNC(=O)c1cc2n(n1)C[C@@H](O)CNC2=O,8%,-1.11

SMILES,% Inhibition,Z score
Cc1ccc2c(Nc3ccc(Cl)c(F)c3)c(C(=O)N3CCC[C@H](C)C3)cnc2n1,-8%,1.31
CC(=O)Nc1ccc(S(=O)(=O)N[C@H]2CO[C@H]3[C@@H]2OC[C@@H]3Nc2nccc(C(C)(C)C)n2)cc1,-2%,0.37
O=S(=O)(c1cccc2nsnc12)N1CCc2[nH]c3ccc(F)cc3c2C1,-8%,1
Cn1cc(S(=O)(=O)N[C@H]2CCN(CC3CCCC3)C2)cn1,-10%,1.39
Cn1nncc1CN[C@@H]1COC(C)(C)O[C@@H]1c1ccccc1,-31%,3.69
CC(C)c1ocnc1C(=O)Nc1ccccc1N1C(=O)N[C@@H](C)C1=O,1%,-0.2
O=C(N[C@H]1CCc2ccccc21)c1cccc(S(=O)(=O)NCc2ccc3c(c2)OCO3)c1,-11%,1.49
O=C(N[C@H]1CCCc2c1cnn2-c1ccccn1)c1ncccc1O,-13%,1.69
CCCN1CCC(NC(=O)CCCc2ccccc2)CC1,-10%,1.37
CCC1=NO[C@@H](CN(CC)Cc2noc(C3CCC3)n2)C1,-14%,2.45
Cc1c(NC(=O)[C@H]2CCOC2)cnn1C,14%,-1.6
CCC(C)CC(=O)N1CCC(C2(Cc3cccc(F)c3)NC(=O)N(CCN(C)C)C2=O)CC1 (stereo not drawn),-10%,1.79
COCC(C)(C)c1noc(-c2ccccc2-c2nc(C)no2)n1,-7%,1.4
CCc1[nH]nc(-c2ccc3c(c2)OCO3)c1NC(=O)Cc1cccc(OC)c1,-7%,1.15
CN(C)CCN1CC(=O)N[C@@H](CC2CCCCC2)C1=O,2%,-0.22
CC(C)NC(=O)[C@@H]1Cc2[nH]cnc2C2(CCN(Cc3ccsc3)CC2)N1,-8%,1.29
CCc1c(C(=O)N2CC[C@](C)(C(=O)NC)C2)ccn1C,2%,-0.26
COc1ccc(CCc2nc3nccc(-c4cccnc4)n3n2)cc1,-1%,0.13
CO[C@@]12CC[C@@H](Oc3ccccn3)C[C@@H]1N(Cc1nc(C(C)C)no1)CC2,-4%,0.83
O=C(Nc1cccc(C(F)(F)F)c1)c1scnc1CCc1ccncc1,-12%,1.56
CCCn1nc(C)cc1NC(=O)c1cnc2ccccc2n1,-11%,1.29
